Most of the strong results are listed elsewhere, so they are rarer here than in the full data.
tested on: EPHA5; conditions: concentration: 1 μM,replicates: in singlicate; n = 1
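Also: KINOMEscan kinase panel screen.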

| SMILES | %Inh |
| --- | --- |
| O=C1NC(=O)C(c2ccccc2)=C1Nc1cc(Cl)c(O)c(Cl)c1 [SB-390530] | 0% |
| O=C1NC(=O)C(c2ccccc2Cl)=C1Nc1cccc(C(=O)O)c1 [SB-390526] | 0% |
| O=C1NC(=O)C(c2ccc(Cl)cc2)=C1Nc1ccccc1 [SB-317661] | 0% |
| COc1ccc(C2=C(Nc3cccc(Cl)c3)C(=O)NC2=O)cc1 [SB-326892] | 0% |
| O=C1NC(=O)C(c2ccc(Cl)cc2)=C1Nc1cccc(O)c1 [SB-333613] | 0% |
| O=C(O)c1ccc(-c2nc(-c3ccc(F)cc3)c(-c3ccncc3)[nH]2)cc1 [SB-202620] | 22% |
| O=C1NC(=O)C(c2ccc(Cl)cc2)=C1Nc1ccc(O)c(Cl)c1 [SB-405367] | 26% |
| O=C1NC(=O)C(c2ccccc2Cl)=C1Nc1ccccc1 [SB-376715] | 0% |
| Cc1ccc(C)c(Oc2nccc(-c3c(-c4ccc(F)cc4)ncn3C3CCNCC3)n2)c1.O=C(O)C(F)(F)F.O=C(O)C(F)(F)F.O=C(O)C(F)(F)F [SB-284852] | 7% |
| O=C1NC(=O)C(c2ccc(Cl)cc2)=C1Nc1cccc(C(=O)O)c1 [SB-360737] | 0% |
| Cc1cc(C)cc(Oc2nccc(-c3c(-c4ccc(F)cc4)ncn3C3CCNCC3)n2)c1.O=C(O)C(F)(F)F.O=C(O)C(F)(F)F.O=C(O)C(F)(F)F [SB-284851] | 0% |
| COc1cccc(C2=C(Nc3ccc(SC)cc3)C(=O)NC2=O)c1 [SB-331032] | 12% |
| O=C1NC(=O)c2c1c(-c1ccccc1)cc1[nH]c3ccc(O)cc3c21 | 12% |
| CSc1ccc(NC2=C(c3cccc(Cl)c3)C(=O)NC2=O)cc1 [SB-341528] | 0% |
| CS(=O)(=O)c1ccccc1-c1nc(-c2ccc(F)cc2)c(-c2ccncc2)[nH]1 [SB-213663] | 6% |
| O=C1NC(=O)C(c2ccccc2)=C1Nc1ccc(Cl)c(C(=O)O)c1 [SB-390532] | 0% |

tested on: EPHA6; conditions: concentration: 1 μM,replicates: in singlicate; n = 1

| SMILES | %Inh |
| --- | --- |
| O=C1NC(=O)C(c2ccccc2)=C1Nc1cc(Cl)c(O)c(Cl)c1 [SB-390530] | 11% |
| O=C1NC(=O)C(c2ccccc2Cl)=C1Nc1cccc(C(=O)O)c1 [SB-390526] | 9% |
| O=C1NC(=O)C(c2ccc(Cl)cc2)=C1Nc1ccccc1 [SB-317661] | 0% |
| COc1ccc(C2=C(Nc3cccc(Cl)c3)C(=O)NC2=O)cc1 [SB-326892] | 15% |
| O=C1NC(=O)C(c2ccc(Cl)cc2)=C1Nc1cccc(O)c1 [SB-333613] | 0% |
| O=C(O)c1ccc(-c2nc(-c3ccc(F)cc3)c(-c3ccncc3)[nH]2)cc1 [SB-202620] | 30% |
| O=C1NC(=O)C(c2ccc(Cl)cc2)=C1Nc1ccc(O)c(Cl)c1 [SB-405367] | 0% |
| O=C1NC(=O)C(c2ccccc2Cl)=C1Nc1ccccc1 [SB-376715] | 0% |
| Cc1ccc(C)c(Oc2nccc(-c3c(-c4ccc(F)cc4)ncn3C3CCNCC3)n2)c1.O=C(O)C(F)(F)F.O=C(O)C(F)(F)F.O=C(O)C(F)(F)F [SB-284852] | 10% |
| O=C1NC(=O)C(c2ccc(Cl)cc2)=C1Nc1cccc(C(=O)O)c1 [SB-360737] | 9% |
| Cc1cc(C)cc(Oc2nccc(-c3c(-c4ccc(F)cc4)ncn3C3CCNCC3)n2)c1.O=C(O)C(F)(F)F.O=C(O)C(F)(F)F.O=C(O)C(F)(F)F [SB-284851] | 2% |
| COc1cccc(C2=C(Nc3ccc(SC)cc3)C(=O)NC2=O)c1 [SB-331032] | 6% |
| O=C1NC(=O)c2c1c(-c1ccccc1)cc1[nH]c3ccc(O)cc3c21 | 10% |
| CSc1ccc(NC2=C(c3cccc(Cl)c3)C(=O)NC2=O)cc1 [SB-341528] | 0% |
| CS(=O)(=O)c1ccccc1-c1nc(-c2ccc(F)cc2)c(-c2ccncc2)[nH]1 [SB-213663] | 35% |
| O=C1NC(=O)C(c2ccccc2)=C1Nc1ccc(Cl)c(C(=O)O)c1 [SB-390532] | 6% |

tested on: EPHA7; conditions: concentration: 1 μM,replicates: in singlicate; n = 1

| SMILES | %Inh |
| --- | --- |
| O=C1NC(=O)C(c2ccccc2)=C1Nc1cc(Cl)c(O)c(Cl)c1 [SB-390530] | 15% |
| O=C1NC(=O)C(c2ccccc2Cl)=C1Nc1cccc(C(=O)O)c1 [SB-390526] | 2% |
| O=C1NC(=O)C(c2ccc(Cl)cc2)=C1Nc1ccccc1 [SB-317661] | 0% |
| COc1ccc(C2=C(Nc3cccc(Cl)c3)C(=O)NC2=O)cc1 [SB-326892] | 0% |
| O=C1NC(=O)C(c2ccc(Cl)cc2)=C1Nc1cccc(O)c1 [SB-333613] | 0% |
| O=C(O)c1ccc(-c2nc(-c3ccc(F)cc3)c(-c3ccncc3)[nH]2)cc1 [SB-202620] | 0% |
| O=C1NC(=O)C(c2ccc(Cl)cc2)=C1Nc1ccc(O)c(Cl)c1 [SB-405367] | 0% |
| O=C1NC(=O)C(c2ccccc2Cl)=C1Nc1ccccc1 [SB-376715] | 0% |
| Cc1ccc(C)c(Oc2nccc(-c3c(-c4ccc(F)cc4)ncn3C3CCNCC3)n2)c1.O=C(O)C(F)(F)F.O=C(O)C(F)(F)F.O=C(O)C(F)(F)F [SB-284852] | 0% |
| O=C1NC(=O)C(c2ccc(Cl)cc2)=C1Nc1cccc(C(=O)O)c1 [SB-360737] | 7% |
| Cc1cc(C)cc(Oc2nccc(-c3c(-c4ccc(F)cc4)ncn3C3CCNCC3)n2)c1.O=C(O)C(F)(F)F.O=C(O)C(F)(F)F.O=C(O)C(F)(F)F [SB-284851] | 16% |
| COc1cccc(C2=C(Nc3ccc(SC)cc3)C(=O)NC2=O)c1 [SB-331032] | 0% |
| O=C1NC(=O)c2c1c(-c1ccccc1)cc1[nH]c3ccc(O)cc3c21 | 0% |
| CSc1ccc(NC2=C(c3cccc(Cl)c3)C(=O)NC2=O)cc1 [SB-341528] | 0% |
| CS(=O)(=O)c1ccccc1-c1nc(-c2ccc(F)cc2)c(-c2ccncc2)[nH]1 [SB-213663] | 0% |
| O=C1NC(=O)C(c2ccccc2)=C1Nc1ccc(Cl)c(C(=O)O)c1 [SB-390532] | 3% |

Source: article PMC5540273 (PLoS ONE, 2017)
